Experimental data from paper PMC9554868.
No constants are given. Whether binding was seen depends on the method and setting. Binding seen in cells or lysates may run through a third protein. Some results given as binding are weak or reduced against the parent protein; the word gives no strength. Sequences can lack the tags named with a protein.

Key:
Assay in all cases: co-IP
[1] = target: RING finger protein 26 (RNF26), wild type, Myc-FLAG-tagged (UniProt Q9BY78)
[2] = target: Zaire ebolavirus (EBOV) glycoprotein GP1,2 (Zaire ebolavirus (EBOV)) (UniProt Q05320)
[3] = target: EBOV nonstructural soluble GP (sGP) (Zaire ebolavirus (EBOV)) (UniProt P60170)

Measured: binding

B1: calnexin (CANX), HA-tagged (protein, UniProt P27824 21-592)
chain: HDGHDDDVIDIEDDLDDVIEEVEDSKPDTTAPPSSPKVTYKAPVPTGEVYFADSFDRGTLSGWILSKAKKDDTDDEIAKYDGKWEVEEMKESKLPGDKGLVLMSRAKHHAISAKLNKPFLFDTKPLIVQYEVNFQNGIECGGAYVKLLSKTPELNLDQFHDKTPYTIMFGPDKCGEDYKLHFIFRHKNPKTGIYEEKHAKRPDADLKTYFTDKKTHLYTLILNPDNSFEILVDQSVVNSGNLLNDMTPPVNPSREIEDPEDRKPEDWDERPKIPDPEAVKPDDWDEDAPAKIPDEEATKPEGWLDDEPEYVPDPDAEKPEDWDEDMDGEWEAPQIANPRCESAPGCGVWQRPVIDNPNYKGKWKPPMIDNPSYQGIWKPRKIPNPDFFEDLEPFRMTPFSAIGLELWSMTSDIFFDNFIICADRRIVDDWANDGWGLKKAADGAAEPGVVGQMIEAAEERPWLWVVYILTVALPVFLVILFCCSGKKQTSGMEYKKTDAPQPDVKEEEEEKEEEKDKGDEEEEGEEKLEEKQKSDAEEDGGTVSQEEEDRKPKAEEDEILNRSPRNRKPRRE
binds: all assays above
